Reference: ChEMBL document CHEMBL4888484, “Replenishing the malaria drug discovery pipeline: Screening and hit evaluation of the MMV Hit Generation Library 1 (HGL1) against asexual blood stage Plasmodium falciparum ,using a nano luciferase reporter read-out” (2022)
About 410 (8.5%) of roughly 4,800 compounds showed an effect of 50% or more. Some of the results follow.

The molecules below were run on Plasmodium falciparum (assay: Confirmatory screen in NF54 pLDH assay, in single point, at 2uM, 72h). Conditions: timepoint 72 hour.
Assay type: functional, Erythrocyte

Row | Structure (SMILES) | % Inhibition [%]
1 | Cc1cccc(CC(=O)N[C@@H](C)CCC(=O)O)c1 | 11
2 | CCOC(=O)C1CCN(c2cc3c(cc2NC(=O)c2cccc(C)c2)n(C)c(=O)n3C)CC1 | 4
3 | Cc1cc(C(=O)NC(C2CC2)C2CC2)c(C)o1 | -21
4 | Cc1nn(C)cc1-c1nnc(-c2ccccc2)o1 | -6
5 | COc1ccc(S(=O)(=O)N2C[C@@H]3CCCN3c3cc(C(F)(F)F)ccc32)cc1 | 15
6 | O=C(Cn1c(=O)n(-c2cc(F)cc(F)c2)c(=O)c2sccc21)NCc1ccc2c(c1)OCO2 | -6
7 | N#Cc1cccc(-c2c[nH]c(CNc3nc4cc(C(F)(F)F)ccc4s3)n2)c1 | 7
8 | Oc1cc(CC[C@H]2CCCCN2)cc(-c2cnc3ccccc3n2)c1 | 80
9 | C[C@H]1CCN(c2ncc(Cl)cc2Cl)CCS1(=O)=O | -11
10 | Cc1ccccc1CNC1C(=O)NCCC1C (stereo not given) | -2
11 | CCC1C(=O)CC(c2ccco2)NC1c1ccco1 (stereo not given) | 13
12 | Cc1ccc(NC(=O)Nc2cc(C)ccc2N2CCCN(Cc3ccc(F)cc3)C2=O)cc1 | 30
13 | O=S(=O)(Cc1ccccc1)N1CCN(C2CCCCCC2)CC1 | 1
14 | c1cc(-c2cn3c(COc4ccc5c(c4)OCO5)nnc3s2)ccn1 | 15
15 | CCN1CCC2CCC(C1)N2C(=O)Nc1ccc(OC2CCC2)c(F)c1 (stereo not given) | -18
16 | C[C@@H](N)C(=O)N1CCc2cc(-c3ccccc3)ccc21 | 11
17 | CC1CN(CC(=O)NCCC#N)C(C)CO1 (stereo not given) | 1
18 | CS(=O)(=O)N1C[C@@H]2CCCN2c2cc(C(F)(F)F)ccc21 | 14
19 | Nc1ncc(C(=O)N2CCC3(CCCCCC3)C2)s1 | 98
20 | Cc1cc(N2CCC(O)CC2)nc(N2CCC(O)CC2)c1C#N | 2
21 | Cc1noc(-c2cc(=O)[nH]c3ccccc23)n1 | 13
22 | COc1ccc(CC(=O)N(c2ccccc2)c2ccccc2)cc1 | 5
23 | Cc1nnc(NC(c2cnc3ccccc3c2)[C@H]2C[C@@H](O)C2)s1 (stereo not given in full) | 12
24 | COc1ccccc1[C@@H]1CC(c2cccn2C)=NN1C(=O)CN(CCN1CCOCC1)C(C)=O | 7
25 | O=C(Nc1ccc(N2CCC(Cc3ccccc3)CC2)cc1C(=O)O)c1ccccc1F | -14
26 | Cc1nnc2ccc(S(=O)(=O)N(Cc3ccc(F)cc3)c3cccc(Cl)c3)cn12 | 14
27 | Cc1ccc(Cl)cc1N1CCN(C(=O)c2ccc3noc(-c4ccc(F)cc4)c3c2)CC1 | -13

Row | Structure (SMILES) | % Inhibition [%]
28 | CN(C)c1ccc(CNC2CCCCCC2)cc1 | -13
29 | COc1cccc(NC(=O)N2CC(O)CC2C2CCCCC2)c1 (stereo not given) | -3
30 | COc1ccc(CCc2nc(NC(=O)c3nc(C)sc3C)n[nH]2)cc1OC | -14
31 | CCOC(=O)c1sc(NC)nc1C(F)(F)F | -14
32 | COc1ccc(C(=O)N(CCO)CCN2CCOCC2)c(OC2CCCC2)c1 | 11
33 | Cc1nn(C)c(=O)n1-c1ccc(Oc2ccccc2)cc1 | -5
34 | COCC(=O)N[C@H]1CC[C@H](CO)CC1 | 2
35 | O=C(Cc1ccc(C(=O)Nc2nc(-c3ccccc3)cs2)cc1)c1ccccc1 | 12
36 | CCCN1CC(=O)N(c2ccc(C)cc2)[C@@H]2CS(=O)(=O)C[C@@H]21 | 9
37 | Cc1nc2cc(NC(=O)[C@@]3(C)CCCN(C(=O)c4ccccc4)C3)ccc2o1 | 3
38 | O=C(NC(c1ccccc1)c1ccccc1)C1=COCCO1 | -14
39 | CC1CCC2C(C1)c1c(nc(O)n(-c3ccccc3)c1=O)OC2(C)C (stereo not given) | 13
40 | Cc1nn(C)c(Oc2cccc(F)c2)c1NC(=O)CC(C)C | 2
41 | CC(C)Oc1nccnc1NC[C@](C)(O)c1cccc(Cl)c1 | -6
42 | Cc1cc(N)n(-c2nc(-c3ccccc3)cc(=O)[nH]2)n1 | -1
43 | O=S(=O)(Nc1ccc2nncn2c1)c1c(F)cccc1Cl | -18
44 | Cc1cnc(C2CCN(C(=O)[C@@H]3CNC(=O)O3)CC2)s1 | 2
45 | CCCN(CC(=O)O)S(=O)(=O)c1cccc(C)c1Br | -23
46 | Cc1c(F)cccc1NC(=O)N1CCN(C2=CC3=N[C@@H](C)CN3C=N2)CC1 | 54
47 | COc1ccc(CCc2nnc(NC(=O)Cc3c(C)noc3C)[nH]2)cc1OC | 1
48 | O=S1(=O)NC(c2ccccc2)(c2ccccc2)c2ccccc21 | -5
49 | Cc1c(Cl)cccc1S(=O)(=O)N1CCN(c2cccnc2)C(=O)C1 | 7
50 | COC(C)[C@H](C)NCC(C)c1ccccc1 (stereo not given in full) | -6
51 | CC(C)c1ccc(-c2nc(CN3CCCCC3)cc(CN3CCCCC3)c2O)cc1 | 95
52 | COCc1cc(=O)n(CC(=O)Nc2cccc(C)c2C)c(N2CCOCC2)n1 | 13
53 | COc1ccc(CNCc2ccc(C)cc2)cc1Cn1ccnc1 | 69
54 | CC(=O)Nc1ccccc1CC(c1c[nH]c2ccccc12)c1c[nH]c2ccccc12 | 0

Row | Structure (SMILES) | % Inhibition [%]
55 | CCN(C(=O)Cn1cc(-c2ccccc2)c2ncn(CC)c(=O)c21)c1ccccc1 | -5
56 | CCN(C)[C@H]1CCN(c2cc(C(F)(F)F)ccn2)C1 | -17
57 | CC(=O)Nc1cc2c(cc1NC(C)=O)N(C(C)=O)CC2 | -7
58 | Cc1nc(C2CC2)nc(N2CCN(C(=O)N(C)C)CC2)c1Cc1ccccc1F | -5
59 | CC[C@@](C)(CCO)NCc1nccn1C | 9
60 | Cc1cc(C)cc(CN2CCCN(c3ccc(C)cc3NC(=O)Cc3ccc(F)cc3)C2=O)c1 | 13
61 | COC(=O)CNCc1ccccc1Cl | 0
62 | O=C(N[C@H]1CCN(CC2CCCC2)C1)c1nccc2cccnc12 | -9
63 | CCOCC(=O)Nc1ccc(OC(F)(F)F)cc1 | -14
64 | Cc1nc(C(=O)NC[C@H]2CN(c3nncs3)CCO2)c(C)s1 | -14
65 | CC(C)(C)c1cc([C@H](c2ccc(Cl)cc2)N2CCCCC2)cc(C(C)(C)C)c1O | 7
66 | CC(C)n1cc(S(=O)(=O)Nc2cc(F)ccc2Cl)c2cccnc21 | 1
67 | O=c1[nH]c2ccsc2c(=O)n1CCc1ccccc1 | -11
68 | NCc1ccc(O)c(Br)c1 | 6
69 | O=C(CCc1nc(CN2CCN(S(=O)(=O)c3ccc(F)cc3)CC2)no1)N1CCCC1 | -4
70 | CCc1onc(C)c1NCc1cnc(C(C)(C)C)s1 | -4
71 | Cc1ccc(NC(=O)c2c(Cl)cccc2Cl)c2c1CC(C)(C)O2 | -21
72 | CN(C(=O)C1CC=CC1)c1ccc(NC(=O)C2CC=CC2)cc1Cl | -13
73 | COCCCN(Cc1c(C)nn(-c2cccc(F)c2)c1N1CCN(C)CC1)S(=O)(=O)c1ccc2ccccc2c1 | 8
74 | Cc1cc(C)n2cc(COC(=O)Cn3c(C)cc4ccccc43)nc2n1 | 2
75 | O=C(CC(O)c1cccc(F)c1)NCCC1CCCCO1 (stereo not given) | 8
76 | CC(C)N(C(=O)c1cc(O)nc2ccccc12)C1CC1 | 10
77 | CC1CCCCC1OCCN1CCOCC1C(N)=O (stereo not given) | 7
78 | CCc1nc2c(C(=O)N3CCOc4c(C)cc(C)cc43)ccnc2[nH]1 | 60
79 | CNC(=O)c1cc(Br)cnc1NC | 10
80 | O=C(NCCc1cnc2c(Cl)cnn2c1)[C@@H]1CC=CCC1 | -25
81 | C#C[C@H](C)OC(=O)c1cccc(Nc2cnccn2)c1 | 10

Row | Structure (SMILES) | % Inhibition [%]
82 | Cc1cnccc1NCCNC1CCN(c2ccc3c(c2)CCC3)CC1 | 77
83 | Cc1ccc(C(=O)c2ccc(NC(=O)c3ncn(-c4ccc(Cl)cc4)n3)cc2)cc1 | -9
84 | COc1cccc(C(=O)NCC(=O)N2CC=C(c3ccccc3)C2)c1 | 12
85 | Cc1nc(Cc2nc(O)cs2)sc1C | -13
86 | CC(C)(C)NC(=O)CCc1ccccc1 | -1
87 | Cc1nc([C@@H]2CCCN2c2nc(C3CCCC3)ns2)no1 | -16
88 | Cc1ccc(-n2c(=O)c3ccccc3n(CC(=O)NCc3cccnc3)c2=O)cc1Cl | -19
89 | CCN(CC)CCN(C(=O)C1CCN(S(=O)(=O)c2ccc(Cl)cc2)CC1)c1nc2c(C)ccc(Cl)c2s1 | -6
90 | Cc1c[nH]c(=O)n1-c1ccc(C(=O)NCCc2cc(F)cc(F)c2)cc1 | 10
91 | Cc1ccc(CN2CCS(=O)(=O)CC2)o1 | -13
92 | Cc1ccc(NC(=O)N2CCC(C(NC(=O)c3ccccc3)C(=O)N3CCCCC3C)CC2)cc1 (stereo not given) | -7
93 | N#Cc1ccc(S(=O)(=O)N2C3CCC2CC(O)C3)o1 (stereo not given) | -10
94 | COc1ccc(CNC(=O)c2ccc(Cl)c(-n3c(C)nc4cccnc43)c2)c(OC)c1 | 14
95 | O=C1C2C3C=CC(C3=C(c3ccccc3)c3ccccc3)C2C(=O)N1CCO (stereo not given) | -12
96 | COc1ccc(-c2cc3c(N4CCN(Cc5ccc6c(c5)OCO6)CC4)nccn3n2)cc1OC | -2
97 | Cc1nc(COc2nc(C(C)(C)C)no2)cs1 | -18
98 | CC1(C)CC2=CC3(C)CC(C)(C)CC4(C3)C2=C(C1)N(c1ccccc1)C(=O)N4C(=O)c1ccccc1 (stereo not given) | -15
99 | Cc1nn(C)cc1C1C(C(=O)Nc2ccccc2)C(=O)CC(C)(O)C1C(=O)Nc1ccccc1 (stereo not given) | 3
100 | C[C@H](Oc1ccc(F)cc1)C(=O)N1CCC(c2nc3cc(Cl)ccc3s2)CC1 | -1
101 | NC(=O)c1ccc(C(F)(F)F)n(C[C@H](O)c2cc(Cl)ccc2Cl)c1=O | 60
102 | Cc1nnc(COC(=O)c2cc3ccc(C(C)(C)C)cc3[nH]2)o1 | 11
103 | COc1ccccc1-n1cnc2cc(C(=O)N3CCCC3)ccc2c1=O | -5
104 | CC(O)CC(C)(C)CNC1CCCc2occc21 (stereo not given) | -9
105 | Cc1cc(Cn2c(=O)n(Cc3ccccc3)c3ccncc32)on1 | 7
